# Experimental data: PubChem BioAssay AID1345082 (National Center for Advancing Translational Sciences (NCATS), 2018)
# About 4,000 (4.3%) of roughly 94,000 compounds were called active. The shares of active, inactive and inconclusive entries below differ from those in the screen. Calls come from the whole dose curve; as a rule, active = well fitted inhibition curve with a large enough effect; inconclusive = small, poorly fitted or top-dose-only effect; inactive = no such curve, though single readings can be large or run the other way. Potencies of inconclusive entries are doubtful fits and often do not repeat.
# Experiment: Cytotoxic Profiling in NIH 3T3 Cell Line of Diverse Libraries Using Quantitative High-Throughput Screening; note: nearly all actives have a fitted effect of over 55% in size
# Details: NIH 3T3 viability, CellTiter-Glo ATP luminescence, 48-72 h; series mostly up to 96.7 µM; activity change, negative = cytotoxicity: at the top concentration
# Method in brief: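 Luminescent ATP readout (CellTiter-Glo, 10 min RT) after 48 or 72 hr compound exposure of NIH 3T3 cells seeded at 400 cells/well in 1536-well format; quantitative HTS.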
# % is set by controls: 0 for no effect and ±100 for the full control effect; potency is the fitted concentration of half-maximal effect; tags give direction and shape of the fitted curve.
Structure (SMILES),"activity change, negative = cytotoxicity",Potency,outcome
COc1cc2c(cc1OCc1ccccc1)N(C(=O)c1ccncc1)CC21CCN(C)CC1,inactive: -25.9%,,
O=C1NCCCCCCN[C@H]2CCCC[C@@H]12,inactive: -11.6%,,
COc1ccc2c(c1)C1(CCN(C(=O)c3ccccc3Br)C1)C(=O)N2 (centres undefined),inactive: -7.63%,,
CC(C)CN[C@H]1[C@H](O)[C@H](O)C[C@@H]1c1ccccc1,inactive: -18.7% [at 230 µM],,
Cc1nc(-c2cccs2)cc([C@H]2CN3CC[C@H]2C[C@@H]3CO)n1,,active: 15.8 µM,
COc1cc2c(cc1Oc1ccccc1)NC(=O)C21CCN(c2nccs2)CC1,inactive: -12.7% [at 138 µM],,
CC(=O)c1cccc(NC(=O)NC[C@H]2C[C@@H]3CCN2C[C@@H]3c2cc(-c3cccs3)nc(C)n2)c1,,active: 31.6 µM,
CCc1cnc(N2CCC3(CC2)C(=O)Nc2cc(OCc4ccccc4)c(OC)cc23)nc1,,"inconclusive: 39.8 µM [inhibitor, partial curve, poor fit]",
O=C1OCC2(CCN(Cc3ccccn3)C2)N1c1ccncc1 (centres undefined),,"inconclusive: 112 µM [inhibitor, single point]",
COc1cc2c(cc1OCC1CC1)NC(=O)C21CCN(Cc2ccncc2)CC1,inactive: -26.2% [at 138 µM],,
CCCNC(=O)OC[C@H]1C[C@@H]2CCN1C[C@@H]2c1cc(-c2ccc(F)cc2)nn1C,,"inconclusive: 112 µM [inhibitor, partial curve, poor fit]",
CN(Cc1ccccc1)C[C@H]1CN2CC[C@H]1C[C@@H]2CNC(=S)Nc1ccc(N(C)C)cc1,,"inconclusive: 50.1 µM [inhibitor, partial curve, poor fit]",
COc1cc2c(cc1OCc1ccccc1)N(C(=O)c1ccc3[nH]ccc3c1)CC21CCN(C)CC1,,active: 22.4 µM,
COc1cc2c(cc1OCc1ccncc1)NC(=O)C21CCN(C(=O)C2CCC2)CC1,,"inconclusive: 44.7 µM [inhibitor, partial curve, poor fit]",
CCCSc1ncc(CN2CCC3(CCNCC3)C2)cn1,,"inconclusive: 89.1 µM [inhibitor, partial curve, poor fit]",
CCOC(=O)[C@H]1CN(C(=O)OCC(C)(C)C)[C@]2(C)C(=O)N(C)c3ccccc3[C@H]12,,"inconclusive: 25.1 µM [inhibitor, partial curve, poor fit]",
COC(=O)c1ccc(NC(=O)N2[C@H]3CC[C@@H]2c2cnc(-c4ccc(F)cc4)nc2C3)cc1,,"inconclusive: 39.8 µM [inhibitor, partial curve, poor fit]",
COc1ccc(-c2cc([C@H]3CN4CC[C@H]3C[C@@H]4CNC(=O)NCc3ccccc3)n(C)n2)cc1,,"inconclusive: 56.2 µM [inhibitor, partial curve, poor fit]",
COc1ccc(CC(=O)N2CC3(CCN(C)CC3)c3cc(OC)c(OCc4ccccc4)cc32)cc1,,"inconclusive: 22.4 µM [inhibitor, full curve, poor fit]",
CC(C)C(=O)N1CC[C@@H]2COCCN(Cc3cccnc3)[C@@H]2C1,inactive: 4.56%,,
Fc1cccc(CC2CCOC3(CCNCC3)C2)c1 (centres undefined),,"inconclusive: 50.1 µM [inhibitor, single point]",
CC(C)NC(=O)OC[C@H]1C[C@@H]2CCN1C[C@@H]2c1cc(-c2ccc(F)cc2)nn1C,,"inconclusive: 112 µM [inhibitor, partial curve, poor fit]",

Structure (SMILES),"activity change, negative = cytotoxicity",Potency,outcome
Cc1ccccc1-c1ccc2n(c1=O)C[C@H]1C[C@@H]2CN(C(=O)Nc2ccccc2)C1,inactive: -6.02% [at 174 µM],,
Cc1cnc(N2CC3CCC(C2)N3CC(F)(F)F)c([N+](=O)[O-])c1,inactive: -17.4%,,
COc1cc2c(cc1OC1CCCC1)NC(=O)C21CCN(C(=O)c2ccccc2)CC1,,"inconclusive: 79.4 µM [inhibitor, partial curve]",
COc1ccc(-c2cc([C@H]3CN4CC[C@H]3C[C@@H]4CNC(=O)c3ccco3)n(C)n2)cc1,,"inconclusive: 126 µM [inhibitor, single point]",
Cc1ccsc1C(=O)N1[C@H]2CC[C@@H]1c1cnc(-c3ccccc3)nc1C2,,"inconclusive: 25.1 µM [inhibitor, partial curve, poor fit]",
O=C(Nc1ccc2n(c1=O)C[C@H]1C[C@@H]2CN(CC2CCCCC2)C1)C1CCCCC1,,"inconclusive: 63.1 µM [inhibitor, full curve, poor fit]",
O=S(=O)(NC[C@H]1C[C@@H]2CCN1C[C@@H]2CN1CCN(c2ccccc2)CC1)c1ccccc1,,"inconclusive: 79.4 µM [inhibitor, partial curve, poor fit]",
CC(=O)NC[C@H]1C[C@@H]2CCN1C[C@@H]2c1cc(-c2ccc3ccccc3c2)nn1C,,active: 31.6 µM,
C=C[C@H]1CN2CC[C@H]1C[C@@H]2CNC(=O)c1ccc2ccccc2c1,,"inconclusive: 126 µM [inhibitor, single point]",
CN1CCN(C[C@H]2CN3CC[C@H]2C[C@@H]3CNS(=O)(=O)c2ccccc2)CC1,inactive: -23.4% [at 174 µM],,
O=C1Nc2ccccc2CC12CCN2Cc1cccnc1 (centres undefined),,"inconclusive: 31.6 µM [inhibitor, partial curve, poor fit]",
Cc1cccc(CN2C[C@@H]3C[C@H]2C(=O)N(C)c2ccccc2O3)n1,inactive: -18.6% [at 138 µM],,
CCOC(=O)[C@H]1CN(C(=O)c2cccc(OC)c2)[C@]2(C)C(=O)N(CC3CC3)c3ccccc3[C@H]12,,"inconclusive: 28.2 µM [inhibitor, partial curve, poor fit]",
COc1cc2c(cc1OC1CCCC1)NC(=O)C21CCN(C(=O)C(C)C)CC1,inactive: -11% [at 138 µM],,
COc1cncc(CN2CCC3(CC2)C(=O)Nc2cc(OCC4CC4)c(OC)cc23)c1,,"inconclusive: 100 µM [inhibitor, partial curve, poor fit]",
COCC1CN(Cc2ccsc2)CC12CCNCC2 (centres undefined),,"inconclusive: 50.1 µM [inhibitor, partial curve, poor fit]",
O=C(N1[C@H]2CC[C@@H]1c1cnc(-c3ccc(F)cc3)nc1C2)C1(c2ccccc2)CC1,,"inconclusive: 39.8 µM [inhibitor, partial curve, poor fit]",
Cc1nc(-c2ccc(N(C)C)cc2)cc([C@H]2CN3CC[C@H]2C[C@@H]3CNC(=O)c2ccco2)n1,,"inconclusive: 56.2 µM [inhibitor, partial curve, poor fit]",
Cc1cc(CN2CCC3CC(=O)NCCC3C2)cc(C)n1 (centres undefined),inactive: 3.61% [at 138 µM],,
CC(=O)N1CCC(C(=O)N2CCC3(CC2)NCc2ccccc2-n2ccnc23)CC1,,"inconclusive: 70.8 µM [inhibitor, single point]",
c1ccc2c(CC3CN4CCCC4CN3)c[nH]c2c1 (centres undefined),inactive: -12.2% [at 138 µM],,
COc1ccc(CNC[C@H]2C[C@@H]3CCN2C[C@@H]3c2cc(-c3cccs3)nn2C)cc1,,"inconclusive: 63.1 µM [inhibitor, partial curve, poor fit]",

Structure (SMILES),"activity change, negative = cytotoxicity",Potency,outcome
COc1cc2c(cc1OCc1ccccc1)N(C(=O)CC1CC1)CC21CCN(C)CC1,,active: 79.4 µM,
CC(C)NC(=O)N1[C@H]2CC[C@@H]1c1cnc(-c3ccc(F)cc3)nc1C2,,"inconclusive: 10 µM [inhibitor, partial curve, poor fit]",
CCOC(=O)[C@H]1CN(C(=O)NC2CCCC2)[C@]2(C)C(=O)N(CC3CC3)c3ccccc3[C@H]12,,"inconclusive: 35.5 µM [inhibitor, partial curve, poor fit]",
CC[C@H]1CN2CC[C@H]1C[C@@H]2CNC(=S)Nc1ccc(N(C)C)cc1,inactive: 0.487% [at 174 µM],,
Nc1nc(N2CC3CCC(C2)N3CC(F)(F)F)c2[nH]cnc2n1,,"inconclusive: 50.1 µM [inhibitor, partial curve, poor fit]",
Cc1ccc(S(=O)(=O)NC[C@H]2C[C@@H]3CCN2C[C@@H]3CN2CCN(c3ncccn3)CC2)cc1,inactive: -13.2%,,
CC(C)N1CC2CCC(C1)N2CC1CCCC1,inactive: -1.05% [at 174 µM],,
CN1Cc2ccccc2-n2ccnc2C12CCN(C(=O)C1CCCCC1)CC2,inactive: -4.05%,,
Clc1ccc(N2CCN(CC3[C@H]4CNC[C@@H]34)CC2)nc1 (some centres undefined),,"inconclusive: 44.7 µM [inhibitor, partial curve, poor fit]",
O=C(Cc1ccc(F)cc1)N1CCN(CCn2nc3n(c2=O)CCCC3)CC1,inactive: -12.4%,,
CCOC(=O)[C@H]1CN(C(=O)OCc2ccccc2)[C@]2(C)C(=O)N(C)c3ccccc3[C@H]12,inactive: -19.9% [at 46.1 µM],,
CC(C)NC(=O)NC[C@H]1C[C@@H]2CCN1C[C@@H]2CN1CCC(Cc2ccccc2)CC1,,"inconclusive: 70.8 µM [inhibitor, partial curve, poor fit]",
O=C1CS(=O)(=O)C2(CCNCC2)N1c1ccccc1,,,inactive
COc1cc2c(cc1OCc1ccccc1)NC(=O)C21CCN(Cc2nccs2)CC1,,"inconclusive: 50.1 µM [inhibitor, partial curve, poor fit]",
C#C[C@H]1CN2CC[C@H]1C[C@@H]2CNCc1ccc(OC)cc1,,"inconclusive: 141 µM [inhibitor, partial curve, poor fit]",
COc1ccc(CN2CCC3(CC(c4cccnc4)=NO3)C2)cc1 (centres undefined),,"inconclusive: 79.4 µM [inhibitor, partial curve, poor fit]",
CCOC(=O)[C@@H]1[C@H]2c3ccccc3N(C)C(=O)[C@H]2N(C(=O)NCc2ccccc2)[C@@H]1c1ccccc1,,"inconclusive: 70.8 µM [inhibitor, single point]",
O=C1NCc2ccccc2CC12CCCN(Cc1cccnc1)C2 (centres undefined),inactive: 4.31%,,
C#C[C@H]1CN2CC[C@H]1C[C@@H]2COC(=O)Nc1ccc(OC(F)(F)F)cc1,,active: 39.8 µM,
Cc1nc(-c2ccccc2Br)cc([C@H]2CN3CC[C@H]2C[C@@H]3CNC(=O)Nc2ccc(Cl)cc2)n1,,active: 35.5 µM,
